# Laboratory results: publication PMC4336329 (PLoS ONE, 2015)
# Out of some 310,000 compounds screened, about 14,000 (4.5%) showed an effect of 50% or more. Effects have a minus sign here. Some of the results follow.
# Target: human ether-à-go-go-related gene (hERG) potassium channel (human, UniProt Q12809)
# Test: primary screen, population patch clamp on CHO cells stably expressing hERG
# 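Further: peak tail current of the secondary pulse compared with the same well before compound.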
# Sequence of human ether-à-go-go-related gene (hERG) potassium channel (Q12809 whole entry, looked up): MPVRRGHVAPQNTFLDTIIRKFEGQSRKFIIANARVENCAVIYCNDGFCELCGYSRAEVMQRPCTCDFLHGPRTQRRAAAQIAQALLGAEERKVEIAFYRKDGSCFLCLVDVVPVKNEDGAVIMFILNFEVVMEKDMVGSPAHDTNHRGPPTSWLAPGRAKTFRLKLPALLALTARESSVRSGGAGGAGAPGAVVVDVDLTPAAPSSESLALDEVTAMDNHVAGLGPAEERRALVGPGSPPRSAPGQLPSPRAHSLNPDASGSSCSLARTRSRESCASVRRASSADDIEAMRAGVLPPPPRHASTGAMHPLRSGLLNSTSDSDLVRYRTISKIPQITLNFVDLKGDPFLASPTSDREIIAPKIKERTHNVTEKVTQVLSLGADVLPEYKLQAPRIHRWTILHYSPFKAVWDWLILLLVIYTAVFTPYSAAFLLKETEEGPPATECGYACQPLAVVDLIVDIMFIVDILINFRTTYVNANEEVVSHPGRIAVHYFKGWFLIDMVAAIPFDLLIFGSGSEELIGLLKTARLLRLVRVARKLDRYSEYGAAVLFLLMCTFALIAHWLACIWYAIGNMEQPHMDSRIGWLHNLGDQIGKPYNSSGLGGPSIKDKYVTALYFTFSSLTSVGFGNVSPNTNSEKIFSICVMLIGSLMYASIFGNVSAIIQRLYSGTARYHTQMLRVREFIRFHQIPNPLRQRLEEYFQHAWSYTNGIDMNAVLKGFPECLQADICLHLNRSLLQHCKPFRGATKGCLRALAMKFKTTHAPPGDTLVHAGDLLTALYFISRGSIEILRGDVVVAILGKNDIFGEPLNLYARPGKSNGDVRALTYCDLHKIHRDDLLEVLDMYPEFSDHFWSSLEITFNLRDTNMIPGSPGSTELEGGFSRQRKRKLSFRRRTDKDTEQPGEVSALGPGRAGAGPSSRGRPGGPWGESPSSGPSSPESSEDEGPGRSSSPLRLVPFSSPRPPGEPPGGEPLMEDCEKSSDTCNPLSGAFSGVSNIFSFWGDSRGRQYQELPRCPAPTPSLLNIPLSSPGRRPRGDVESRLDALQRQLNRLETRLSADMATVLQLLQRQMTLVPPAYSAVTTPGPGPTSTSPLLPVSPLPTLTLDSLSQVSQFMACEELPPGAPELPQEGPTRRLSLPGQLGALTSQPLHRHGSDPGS
row,Compound,"hERG current change (%, negative = inhibition) at 10uM [%]"
1,Cc1onc(-c2ccccc2)c1C(=O)N1CCCC1,18.9
2,COc1cccc(C2/C(=C(/O)c3ccccc3)C(=O)C(=O)N2Cc2ccco2)c1 (stereo not drawn),16.4
3,Fc1nc(F)c(F)c(NCCCNc2c(F)c(F)nc(F)c2F)c1F,-6.81
4,Cc1ccc(-n2c(O)cnc2Nc2nc(C)cc(C)n2)cc1,-8.21
5,CCOC(CNC(=O)c1cc(C)nn1-c1ccccc1)OCC,-10.1
6,O=C(Nc1sc2c(c1C(=O)O)CCCC2)c1cccs1,16.7
7,CCc1ccc(NC(=S)N2CCCC(C(F)(F)F)C2)cc1 (stereo not drawn),8.05
8,COc1cc(CC(NC(C)=O)C(=O)NC2CCN(C(=O)Nc3ccccc3Cl)CC2)cc(OC)c1 (stereo not drawn),33.4
9,CC(C)(C)CNc1cc(N2CCCC2)ccc1[N+](=O)[O-],-1.39
10,CCOC(=O)C1(Cc2ccccc2C)CCCN(C(=O)CSC)C1 (stereo not drawn),8.57
11,Cc1cc(C)cc(NS(=O)(=O)c2cccs2)c1,-0.0983
12,CC(C)CC1NC(=O)N(CC(=O)Nc2ccc3c(c2)OCCO3)C1=O (stereo not drawn),6.18
13,Cc1ccccc1CC(=O)NC1CCN(Cc2ccccc2)CC1,1.87
14,CCc1cc2c(=O)n(Cc3ccco3)c(SCC(=O)NC3CCS(=O)(=O)C3)nc2s1 (stereo not drawn),-72.2
15,Cc1ccc(N2C(=O)S/C(=C/c3cn(C)c4ccccc34)C2=O)cc1,8.89
16,O=C(NC(=S)Nc1cccc(O)c1)c1ccco1,10.1
17,Cl.c1csc(COc2ccccc2CNC2CCCCC2)c1,-37.5
18,Cc1ccc(-c2cc(-c3ccccc3O)nc(N/N=C/c3cccnc3)n2)cc1,7.52
19,COc1cc(CN2CCCC(C(=O)c3ccc(C(C)(C)C)cc3)C2)cc(OC)c1O (stereo not drawn),-47.3
20,Cc1cccc(N=Nc2c(O)[nH]c3ccc(F)cc23)c1,14.3
21,Cn1ccnc1C1CCCCN1Cc1nc(-c2ccc(Cl)cc2)no1 (stereo not drawn),-23.1
22,O=C1COc2ccc(S(=O)(=O)NCc3ccc(Cl)cc3)cc2N1,-3.47

row,Compound,"hERG current change (%, negative = inhibition) at 10uM [%]"
1,COc1ccccc1C(=O)NC(=O)COC(=O)c1ncc(Cl)c(Cl)c1Cl,3.55
2,COC(=O)c1ccccc1-c1ccc(/C=N/NC(N)=O)o1,-20.8
3,CCOc1cccc(-c2cc(C(=O)N3N=C(C)CC3(O)C(F)F)c3ccccc3n2)c1 (stereo not drawn),-13.6
4,COC(=O)c1ccc2nc(-c3ccc4c(c3)OCO4)cn2c1,17.3
5,O=C(NCC1CCCCC1)c1cccc(S(=O)(=O)NCc2cccnc2)c1,-0.696
6,CC1CC(C)CN(C(=O)COC(=O)CNC(=O)C23CC4CC(CC(C4)C2)C3)C1 (stereo not drawn),7.91
7,O=C(CCS(=O)(=O)c1cccc2nsnc12)N1CCN(C(=O)c2ccco2)CC1,3.26
8,CC1CCCCC12NC(=O)N(Cn1nnc3ccccc3c1=O)C2=O (stereo not drawn),-17.2
9,CCOc1ccc(NC(=O)CNC(=O)c2nn(-c3ccc(OC)c(OC)c3)c(=O)c3ccccc23)cc1,19.9
10,CC(CN(C)Cc1ccccc1)OC(=O)c1cccc(F)c1.Cl (stereo not drawn),1.12
11,Cc1cc(C(=O)O)ccc1-c1ccc(/C=C2\NC(=O)N(Cc3ccc(F)cc3)C2=O)o1,15.4
12,COc1ccc(C(=O)/C=C/C(=O)N(Cc2ccccc2)C(C(=O)NC2CCCCC2)c2ccncc2)c(O)c1 (stereo not drawn),-19.3
13,CC(C)(C)C(=O)Nc1sc2c(c1-c1nc3ccccc3[nH]1)CCCC2,3.05
14,Cc1ccc(N=Nc2c(C)[nH]n(-c3ccccc3)c2=O)c(C)c1,22
15,O=C(COc1ccc(Cl)cc1Cl)N(Cc1ccco1)C1CCS(=O)(=O)C1 (stereo not drawn),-25.9
16,CN(C)CCCN1c2ccccc2Sc2ccccc21.Cl,-28.1
17,CC(=O)Oc1ccc2c(c1)OC(c1ccccc1)CC21CC(C)(C)NC(=S)N1 (stereo not drawn),-12.8
18,Cc1ccc(N2C(=O)CC(Sc3ncccc3C(=O)O)C2=O)cc1 (stereo not drawn),10.6
19,O=C(NCCO)c1nc(C(=O)c2ccccc2)c2ccccc2n1,15.9
20,Cc1cc(C(=O)NNC(=O)/C=C/c2ccc(F)cc2)c(C)o1,1.41
21,N#Cc1ccc(C(=O)NCC(c2ccco2)N2CCCCC2)cc1 (stereo not drawn),-47.9
22,CCOC(=O)c1c(C)[nH]c(C(=O)COC(=O)C23CC4CC(CC(Cl)(C4)C2)C3)c1C,11.6

row,Compound,"hERG current change (%, negative = inhibition) at 10uM [%]"
1,Cc1ccccc1NC(=O)c1cccc(N2C(=O)C3CCCCC3C2=O)c1 (stereo not drawn),11.4
2,C/C(=N\NC(=O)c1nnn(-c2nonc2N)c1CN(C)C)c1ccco1,-33.2
3,CCOC(=O)C1CCCN(c2cc(C)nc3cc(-c4ccc(Cl)cc4)nn23)C1 (stereo not drawn),9.61
4,COc1ccc(S(=O)(=O)N2CCCCC2)cc1-n1cnnn1,6.64
5,NC(=O)C1CCN(C(=O)c2cnn(-c3ccccc3)c2NC(=O)c2cccc(F)c2)CC1,15.7
6,CN(C)S(=O)(=O)c1ccc(N2CCCC2)c(C(=O)Nc2ccccc2F)c1,-14.7
7,C/C(=N/NC(=O)c1cccs1)c1ccc(NC(=O)COc2ccc(Cl)cc2)cc1,23.5
8,CN(C)S(=O)(=O)c1cc(NC(=O)CN2CCCc3ccccc32)ccc1Cl,-3.22
9,Cc1cc2oc(=O)cc(Cn3ncc(Cl)c(Cl)c3=O)c2cc1Cl,1.74
10,Cc1ccc(CNC(=O)CCCn2c(=O)c3ccccc3n(CC(=O)NCc3ccco3)c2=O)cc1,-12.2
11,COc1cccc(COCC(O)Cn2cnc3cc(C)c(C)cc32)c1.O=C(O)C(=O)O (stereo not drawn),0.607
12,Cc1[nH]n(-c2ccccc2)c(=O)c1C=Nc1cnc2ccccc2c1,-8.67
13,O=C(c1ccccc1F)N1CCc2ccccc21,-7.14
14,CCCCOc1ccc(S(N)(=O)=O)cc1,-11.6
15,CCOc1ccccc1NC(=O)Nc1cccc(NC(C)=O)c1,11.6
16,CCS(=O)(=O)c1ccc2oc(Nc3ccccc3Br)nc2c1,-17.3
17,COc1ccc(OC)c(S(=O)(=O)NCC(=O)O)c1,9.99
18,COc1ccc2c(c1)Cc1sc(NC(=O)c3ccco3)nc1-2,4.73
19,Cc1cccc(-c2noc(CCCC(=O)Nc3ccc(C(N)=O)cc3)n2)c1,9.19
20,Cc1c(Br)c([N+](=O)[O-])nn1CC(=O)Nc1ccc(C(C)C)cc1,11.8
21,c1ccc(CSc2ncnc3ccccc23)cc1,-42.1
22,CCOC(=O)c1[nH]c(C)c(C(=O)NCCCN2CCOCC2)c1C,-11.2

row,Compound,"hERG current change (%, negative = inhibition) at 10uM [%]"
1,O=C(NCCn1c(-c2ccncc2)nc2ccccc21)[C@H]1CCCN1c1nc(CN2CCCCC2)cs1,2.78
2,CC(=O)N1CCc2cc(S(=O)(=O)NCCC(=O)Nc3ccc4c(c3)OCCO4)ccc21,9.08
3,COc1ccc(OCC(=O)O/N=C(\N)c2ccc(OC)c(OC)c2)cc1,7.84
4,CC1(C(=O)O)COC(c2ccc([N+](=O)[O-])cc2)OC1 (stereo not drawn),1.45
5,C=CCNC(=O)/C(=C\C=C\c1ccccc1)NC(=O)c1ccccc1Cl,-49.7
6,C/C(=N\NC(=O)c1ccc(C)cc1C)c1ccc2c(c1)Nc1ccccc1S2,14.4
7,Cc1cc(C(=O)NC2CCCN(Cc3ccc(Cl)cc3)C2)c(C)o1 (stereo not drawn),-11.9
8,OCCN(Cc1ccccc1)Cc1ccc(Cl)cc1,-73
9,O=c1c2[nH]c3ccc(F)cc3c2ncn1CCCN1CCOCC1,-31.3
10,Cc1ccc(S(=O)(=O)NCCc2cn3nc(C)c(C)nc3n2)cc1C,11
11,O=C(NN1CCOCC1)c1cccc(Br)c1,23.3
12,COc1ccc(-c2csc3ncnc(N4CCN(S(=O)(=O)c5ccc(C)c(C)c5)CC4)c23)cc1,4.46
13,CCOc1ccc(NC(=O)CN2CCCC2c2cccs2)cc1S(=O)(=O)N1CCCC1 (stereo not drawn),-19.8
14,CCOc1ccc(Br)cc1/C(C)=N\NC1=NCCN1.Cl,-48.6
15,O=C(Nc1cccc(S(=O)(=O)N2CCCC2)c1)c1cc(-c2ccccn2)nc2ccccc12,4.71
16,O=C(c1cccc(C(F)(F)F)c1)C1CCCN(C(=O)Cn2cncn2)C1 (stereo not drawn),-2.57
17,O=C(Nc1ccccc1C(F)(F)F)c1cc2ncc(CCCl)cn2n1,-34.9
18,CCOC(=O)C1CCN(C(=O)c2c(C)oc3c2C(=O)c2ccccc2C3=O)CC1,-27.5
19,CC(=O)c1sc(N/N=C/c2cccc(O)c2)nc1C,14.2
20,CN1C(=O)C(CC(N)=O)N(NC(=O)c2ccc(Cl)cc2)C1=S (stereo not drawn),22.5
21,Cc1ccc(C)c(NC(=O)CN(C)C(=O)c2ccccc2OCc2ccc(Cl)cc2)c1,-2.36
